Whole data set: some 33,000 sequences, median “E-score (-0.5 to 0.5)” near -0.035, cut for the highest 2% near 0.35. Some of the results follow.
These sequences were tested against T1, Pdr3 (UniProt P33200) (assay: PBM E-score (8-mer binding enrichment) (E-score (-0.5 to 0.5)); higher = stronger / more preferred TF binding; most listed sequences are background and not binding sites). Conditions: protein concentration: 200 nM; construct: GST-full length.
T1 sequence: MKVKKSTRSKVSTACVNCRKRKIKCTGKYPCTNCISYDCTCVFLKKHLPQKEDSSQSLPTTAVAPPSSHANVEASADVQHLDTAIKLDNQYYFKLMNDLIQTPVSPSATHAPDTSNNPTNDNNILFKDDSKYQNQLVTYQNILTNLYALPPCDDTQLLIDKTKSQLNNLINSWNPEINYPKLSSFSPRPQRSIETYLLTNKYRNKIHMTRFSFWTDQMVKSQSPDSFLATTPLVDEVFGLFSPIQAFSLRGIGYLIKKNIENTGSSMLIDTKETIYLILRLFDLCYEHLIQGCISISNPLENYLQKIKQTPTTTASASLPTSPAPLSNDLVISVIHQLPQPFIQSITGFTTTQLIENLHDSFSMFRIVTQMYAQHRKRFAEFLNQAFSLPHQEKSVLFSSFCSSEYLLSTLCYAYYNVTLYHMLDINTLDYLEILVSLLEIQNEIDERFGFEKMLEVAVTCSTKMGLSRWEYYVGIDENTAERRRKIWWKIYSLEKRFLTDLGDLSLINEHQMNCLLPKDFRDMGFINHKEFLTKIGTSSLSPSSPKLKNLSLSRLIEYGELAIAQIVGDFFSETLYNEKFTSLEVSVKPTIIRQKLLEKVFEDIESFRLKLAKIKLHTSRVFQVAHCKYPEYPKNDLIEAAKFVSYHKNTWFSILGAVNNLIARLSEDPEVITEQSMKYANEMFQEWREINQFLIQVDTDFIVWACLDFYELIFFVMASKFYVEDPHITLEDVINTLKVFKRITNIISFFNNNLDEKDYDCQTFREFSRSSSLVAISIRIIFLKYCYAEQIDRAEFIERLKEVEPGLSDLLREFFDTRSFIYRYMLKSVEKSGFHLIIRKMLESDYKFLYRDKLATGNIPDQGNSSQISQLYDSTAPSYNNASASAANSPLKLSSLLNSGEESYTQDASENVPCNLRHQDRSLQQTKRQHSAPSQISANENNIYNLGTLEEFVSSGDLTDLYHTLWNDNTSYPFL
Procedure: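 Universal 'all 10-mer' protein binding microarrays (Agilent AMADID 015681) probed with GST-tagged S. cerevisiae TFs (full-length or DBD) made by in vitro transcription/translation (PURExpress), about 100-200 nM. Bound TF was detected with fluorescent anti-GST. Each ungapped 8-mer (which stands for itself and its reverse complement) is scored by the PBM enrichment score (E-score), a modified Wilcoxon-Mann-Whitney statistic from -0.5 to +0.5, computed with the Universal PBM Analysis Suite. Scale: above 0.35 generally sequence-specific binding.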

Sequence	PBM E-score
CCGAGTTA	0.195
TCTGCACA	0.0318
GACTGTTA	-0.204
CTGTTCCA	-0.195
AAGCAGGC	-0.203
AAACACTC	-0.0196
AGGATCTC	-0.149
CTGCACAA	-0.147
CAACCGAC	0.147
AGCACACA	-0.188
ATGGGTGC	-0.235
CTTCGTGA	-0.069
AGGAGTCC	-0.0505
CGGACAGA	0.3
GTGCGTCA	-0.0339
CAACTAGC	0.162
CTTTTAAC	-0.148
GTGCCGTA	0.0678
GGTACGCA	-0.119
TAGATTCA	-0.159
CCCGGACA	0.362
ATCCAGCC	0.0781
CTTATGTA	-0.241
TAACGTAA	-0.151
ACACGCGA	-0.0892

Sequence	PBM E-score
AGACTGAA	-0.06
ACCTCCAT	0.0237
CCCGTTCG	0.15
AACTTGGT	-0.0454
AAAGTCCG	0.219
ACGCCTAG	-0.328
AAACGGTT	-0.106
CGGGTCAC	0.152
CGTATCAG	0.159
AGAATCGA	0.0394
CACGAGAC	-0.0194
CCGAACTA	0.227
ATTCAGAG	0.167
GTCGGTCA	-0.117
AGAGAGGA	-0.0887
ATTTCTGC	0.182
CTTAAGCA	-0.0226
GCCGTACA	0.0125
CCCGCATA	0.233
AAAGAGTT	-0.236
AAACAACC	-0.0411
GTTAGAAA	-0.0949
CCGCCAAC	0.207
GTGAGAAA	-0.0422
CCACGGGG	0.335

Sequence	PBM E-score
ACCGGTAA	0.183
GTGTCGTA	-0.0135
GAGGAGGA	-0.215
CCCTGCCG	0.186
AATTATTG	0.073
CTCTCAGA	-0.208
ACTCGTGG	-0.0717
CAGATAAC	0.0515
ACCGTTAG	-0.208
AGCCAATG	-0.195
AATATGAC	0.0166
CCTATTAA	-0.0439
ACCTAGGG	-0.129
CTTTCGAA	-0.129
ATAGGTAC	-0.0461
AGACCATG	-0.161
GTTAGAGA	-0.274
AATTCCCA	-0.171
CTCTACTC	-0.0643
AAACTAGA	-0.112
AGAACTTA	0.057
CAGCCAAG	-0.183
AACTGGGG	0.0342
ATGTAACG	-0.0492
AAAGACAC	-0.0629

Sequence	PBM E-score
ATACTACC	-0.121
CCCTTTCG	0.056
AACTTCAC	-0.136
AGGCTAGC	-0.253
AGTTCTAG	-0.0244
AGTCATAG	-0.214
TAAGAGAA	-0.194
TGAACACA	-0.0105
GATGGCTA	0.0264
CGAACAAC	0.167
ATAATACA	0.212
CGTCAGCC	0.152
GATGAACC	0.134
ATAGTCCG	0.202
GATGGGCC	-0.0233
ACCGTGCT	-0.0933
GGACCGCC	0.0997
CGCTCGAC	-0.0496
TCGGATCA	0.303
CTCCTGAC	-0.102
CAGGTATG	-0.0604
AGTATTGG	-0.247
CAGTAAGG	-0.142
CTTAGCGC	0.172
AAACGAAT	-0.0316

Sequence	PBM E-score
AGAACGAC	-0.128
AAAGTCAC	-0.0173
CCACATAG	-0.0493
TCACTACA	0.0233
CCCCCTAA	-0.274
AAAAAGCA	-0.27
GAGTTCAC	-0.0568
TACCAATA	-0.226
AAAGGATG	-0.129
CTGCTAAA	0.0211
GCGGGACA	0.318
AGTTACAT	-0.193
CGTGGCGC	-0.0222
AGCGTCTG	-0.165
ACCCTTAG	-0.217
TATTCAGA	-0.119
ATCGTTCC	0.202
AAACGTAA	-0.104
ATATCACA	-0.214
AGATGGTA	0.076
CACGGGTA	0.057
CAAGGGAC	-0.267
ATACTGGC	-0.112
GAATTCTC	0.05
AGAGCCCA	-0.0752

Sequence	PBM E-score
GATCCACC	-0.0343
AACGTGGT	-0.232
GGCTGGTA	-0.0333
CCATCGGG	0.192
AGGTGCAG	-0.084
AGTTGTGC	-0.0268
CCGATTCC	0.395
AGTCTATG	-0.397
ATCAAGCA	-0.0231
TATGACGA	-0.0199
CTGCGGTC	0.0312
CCAGTATA	-0.00344
CCTTAAAA	-0.354
ATCCATAG	-0.00615
GAAAGCCC	0.201
ATGAAGAA	-0.0658
GCTCATAC	-0.138
AAAAGACG	0.0113
ACAAGTTA	0.119
ACGTCTGC	-0.203
GAGTCGGA	0.234
GGTGCAAC	0.0956
AGGACGCG	-0.0115
CACGACCG	-0.0793
AGCTCGCG	0.142

Sequence	PBM E-score
ACGCCGAG	0.171
CGGTTCGA	0.198
AGAGCCGG	0.212
TAAGGAAA	-0.0801
ATTGTTAC	0.00902
CAGTAGAG	-0.172
CTGGCAAG	-0.099
AGCTTATG	-0.129
ATTATCTC	0.145
CAATCTCC	0.0806
AACCCGAC	0.185
AAGTGACT	-0.241
CCTGGTGA	-0.0715
ACAGCAGT	0.0268
CGAAGCGA	-0.0242
AAACTCAA	0.0182
ATGTTTCC	0.31
CGTGGGTC	0.0139
AGAGGGAC	-0.106
GCCAGAGC	-0.147
AGCCCAAA	0.0809
GGCGCAAA	0.123
